PubChem BioAssay AID686979 (National Center for Advancing Translational Sciences (NCATS), 2013)
Out of some 420,000 compounds screened, about 50,000 (12%) were called active. This list was built around the results that the source calls inconclusive (neither active nor inactive); the mix of calls is not that of the screen. The call rests on the fitted dose curve; in most records, active means well fitted inhibition curve with a large enough effect; inconclusive means small, poorly fitted or top-dose-only effect; inactive means flat fitted curve, though single readings scatter. Potencies of inconclusive entries are left out as doubtful fits.

experiment: qHTS for Inhibitors of human tyrosyl-DNA phosphodiesterase 1 (TDP1): qHTS in cells in presence of CPT; settings: chicken DT40 Tdp1-/-;hTDP1 cells + 20 nM CPT, ATP luminescence, 48 h; series mostly up to 46.2 µM; further: nearly all actives have a fitted effect of over 55% in size
Summary of the method: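 Cell growth measured by CellTiter-Glo luminescence after a minimum 48 h, 37 C compound exposure with 20 nM CPT in Tdp1-knockout DT40 cells stably expressing hTDP1, seeded 400/well; qHTS titration format.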
Potency means the concentration at half of the fitted maximal effect; tags describe the fitted curve by direction and shape.

With Cc1ccc(C(=O)N[C@H](C(=O)OCc2nnc(-c3ccccc3)o2)C(C)C)cc1 as the molecule, how does the Potency read?
Its Potency is “inactive”.

With COc1ccc(OC)c(-c2cnc(OC(C)(C)C)nc2OC(C)(C)C)c1 as the molecule, how does the Potency read?
The Potency was active: 20.6 µM.

For COc1cccc(N2CC(O)Cn3c2nc2c3c(=O)n(CCCc3ccccc3)c(=O)n2C)c1 (stereo not given), which Potency is on record?
The Potency was active: 11.6 µM.

With O=C(NC1CCCC1)c1cnn(-c2ccc(F)cc2F)c1C1CCNCC1 as the molecule, how does the Potency read?
The Potency was “inactive”.

With Cc1cc(C)c(NC(=O)C(C)Sc2nc3ccc(N4C(=O)c5ccccc5C4=O)cc3s2)c(C)c1 (stereo not given) as the molecule, how does the Potency read?
The Potency was inconclusive [inhibitor, partial curve].

With C#Cc1ccc([C@H]2C=C(C(=O)N3CCN(Cc4ccc5c(c4)OCO5)CC3)O[C@@H](OCc3ccc(CO)cc3)C2)cc1 as the molecule, how does the Potency read?
Its Potency is inconclusive [inhibitor, partial curve, poor fit].

Which Potency does the source give for CCOC(=O)c1cc(=O)n2nc(-c3ccc(C)cc3)nc2s1 here?
The Potency was “inactive”.

For Cc1ccccc1C1c2[nH]c3ccccc3c2C[C@H]2C(=O)N(C3CC3)CC(=O)N12 (stereo not given in full), which Potency is on record?
Its Potency is inconclusive [inhibitor, single point].

Which Potency does the source give for COc1ccccc1CN1CCCCCC1 here?
The Potency was inconclusive [inhibitor, partial curve].

With c1ccc(CNc2nc(NCc3ccccc3)c3sccc3n2)cc1 as the molecule, how does the Potency read?
Its Potency is active: 23.1 µM.

With O=C(Cc1cccc(NC(=O)C2CCCN(C(=O)C3CCC3)C2)c1)Nc1cccc(C(=O)N2CCCCC2)c1 (stereo not given) as the molecule, how does the Potency read?
Its Potency is inconclusive [inhibitor, single point].

Which Potency does the source give for CC1CCCC(NC(=O)c2cccc(S(=O)(=O)N3CCN(c4ccccc4)CC3)c2)C1C (stereo not given) here?
The Potency was active: 18.4 µM.

Which Potency does the source give for Cc1ccc(C2=NC(c3ccc(F)cc3)=Nc3ccc(C)cc3N2)cc1 here?
The Potency was inconclusive [inhibitor, single point].

For Cc1cccc2c1NC(=O)C2=O, which Potency is on record?
Its Potency is inconclusive [inhibitor, full curve, poor fit].

For Cc1ccc(Cn2c(O)c(N=NC(=S)Nc3ccccc3F)c3ccccc32)cc1, which Potency is on record?
The Potency was active: 6.51 µM.

Which Potency does the source give for CCC(=O)NC(Nc1nc2ccc(C)cc2s1)(C(=O)OC)C(F)(F)F (stereo not given) here?
Its Potency is inconclusive [inhibitor, single point].

Which Potency does the source give for CCNCc1cc([N+](=O)[O-])ccc1OCC here?
Its Potency is “inactive”.

Which Potency does the source give for CN1CCc2nc(SCc3ccc(Cl)cc3)c(C#N)c(-c3cccs3)c2C1 here?
Its Potency is active: 16.4 µM.

Which Potency does the source give for O=C(CN1CCN(Cc2ccccc2)CC1)Nc1cccc(S(=O)(=O)N2CCCCCC2)c1 here?
The Potency was inconclusive [inhibitor, single point].

Which Potency does the source give for Cc1occc1C(=O)NNC(=O)c1ccccc1Br here?
Its Potency is “inactive”.

For CCCCOC(=O)Nc1ccccc1C(N)=O, which Potency is on record?
The Potency was “inactive”.

For Cc1nc(C(F)(F)F)c(C(=O)NC(=O)Nc2ccc(OC(F)(F)F)cc2)s1, which Potency is on record?
The Potency was inconclusive [inhibitor, single point].

For Cc1ccc(S(=O)(=O)N2CCOCC2)cc1C(=O)N1CCN(S(=O)(=O)c2ccccc2F)CC1, which Potency is on record?
Its Potency is “inactive”.

For Nc1nc(CSCCO)nc(Nc2ccccc2)n1, which Potency is on record?
Its Potency is inconclusive [inhibitor, single point].

For Cc1n[nH]c(=S)n1/N=C/c1ccccc1OCc1ccc(Cl)cc1, which Potency is on record?
The Potency was inconclusive [inhibitor, single point].

For CCOC(=O)C(NCc1ccccc1OC)(NC(=O)CC)C(F)(F)F (stereo not given), which Potency is on record?
Its Potency is inconclusive [inhibitor, single point].

Which Potency does the source give for Cc1ccc(NC(=O)/C(C#N)=C/c2ccccc2Cl)cc1C here?
The Potency was active: 25.9 µM.

For O=C1CCCN2N=C(SCC(=O)Nc3ccc(F)cc3F)SC2=N1, which Potency is on record?
The Potency was inconclusive [inhibitor, single point].

For COc1ccccc1OCCCCn1c(C2CC(=O)N(c3ccccc3Cl)C2)nc2ccccc21 (stereo not given), which Potency is on record?
Its Potency is inconclusive [inhibitor, single point].

Which Potency does the source give for CN(C)c1ccc(S(=O)(=O)N2CCC(Cc3ccccc3)CC2)cn1 here?
The Potency was inconclusive [inhibitor, single point].

With Cc1ccc(OCCNC(=O)/C=C/c2ccco2)cc1C as the molecule, how does the Potency read?
Its Potency is inconclusive [inhibitor, single point].

With COC(=O)Cn1cnc2c(nnn2-c2ccc(OC)cc2)c1=O as the molecule, how does the Potency read?
The Potency was inconclusive [inhibitor, full curve, poor fit].

Which Potency does the source give for O=C(NN(C(=O)c1ccccc1)c1ccccc1)c1ccccc1 here?
Its Potency is “inactive”.

For Cc1cccc(-c2nnc(NC(=O)c3ccc(Cl)cc3)o2)c1, which Potency is on record?
The Potency was active: 11.6 µM.

For CCOC(=O)c1ccc(NC(=O)c2cccc(S(=O)(=O)N3CCN(C(C)=O)CC3)c2)cc1, which Potency is on record?
Its Potency is inconclusive [inhibitor, single point].

For COc1cccc(COC(=O)C2CC(=O)N(Cc3ccccc3)C2)c1OC (stereo not given), which Potency is on record?
Its Potency is “inactive”.

For O=C(CSc1nnc(-c2ccccc2Br)o1)N1CCN(C(=O)c2ccco2)CC1, which Potency is on record?
The Potency was inconclusive [inhibitor, partial curve, poor fit].

With Cc1ccc(C(=O)NCC(=O)OCCCn2c(=O)[nH]c3ccccc32)cc1 as the molecule, how does the Potency read?
The Potency was “inactive”.

Which Potency does the source give for CC(/C=C/c1ccco1)=N\NC(=O)c1cc(Cl)ccc1O here?
Its Potency is inconclusive [inhibitor, single point].

With Cc1ccc(S(=O)(=O)N2CCN(c3ccc(C(=O)N4CCOCC4)cc3[N+](=O)[O-])CC2)cc1 as the molecule, how does the Potency read?
The Potency was active: 18.4 µM.

Which Potency does the source give for Cc1ccc(NC(=O)CN2c3ccccc3S(=O)(=O)c3ccccc32)cc1F here?
Its Potency is inconclusive [inhibitor, single point].

Which Potency does the source give for CCC(=O)N1CCN(c2ccccc2NC(=S)NC(=O)c2cccc([N+](=O)[O-])c2)CC1 here?
The Potency was inconclusive [inhibitor, single point].

Which Potency does the source give for COc1ccccc1C1CCN(Cc2ccccc2)CC1 here?
Its Potency is inconclusive [inhibitor, single point].

With C=CC[n+]1c(-c2ccc(C)cc2)csc1Nc1ccc(NC(C)=O)cc1 as the molecule, how does the Potency read?
The Potency was inconclusive [inhibitor, single point].

With Cc1cccc(C(=O)NC2CCN(CC(=O)Nc3cccc(Cl)c3)CC2)c1 as the molecule, how does the Potency read?
Its Potency is inconclusive [inhibitor, single point].
